# Laboratory results: a collection of fitness landscapes (doi:10.1016/j.celrep.2020.107928)
# The full ranking holds about 81,000 sequences; the median of “one-hybrid fitness for binding NBS DNA” is about -0.1, and the highest 2% start at about 0.36. Some of the results follow.
# B1: Caulobacter ParB omega fusion; a variant is named by its letters at X, in order, B8GW30 (parent)
# chain: MESVVVGEPGMSEGRRGLGRGLSALLGEVDAAPAQAPGEQLGGSREAPIEILQRNPDQPRRTFREEDLEDLSNSIREKGVLQPILVRPSPDTAGEYQIVAGERAWRAAQRAGLKTVPIMVRELDDLAVLEIGIIENVQRADLNVLEEALSYKVLMEKFERTQENIAQTIGKSXSHVANXMRLLXLPDEVQSYLVSGELTAXHARAIAAAADPVALAKQIIEGGLSVRETEALARKAPNLSAGKSKGGRPPRVKDTDTQALESDLSSVLGLDVSIDHRGSTGTLTITYATLEQLDDLCNRLTRGI
# Variants of: B1
# Assay: one-hybrid fitness for binding NBS DNA (the Noc-binding site; scaled: cognate 1, non-cognate 0); higher = stronger binding
# Conditions: with NBS DNA site
# Method in brief: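 In E. coli USO, a HIS3 reporter with its site placed 19 bp from the promoter was used to select Caulobacter ParB variants randomised at four specificity codons. Growth lasted 48 hours at 37°C on histidine-free M9 containing 0.1 mM IPTG and 5 mM 3-AT. Fitness was taken as the log change in variant-to-wild-type read ratio from Illumina sequencing of pre- and post-selection plasmids, rescaled between the non-cognate and cognate sites.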
row,Variant,one-hybrid fitness for binding NBS DNA
1,RHTS,0.446
2,LGTW,≤ 0.2
3,TPRP,≤ 0.2
4,DCVT,≤ 0.2
5,FTTS,≤ 0.2
6,TVVV,≤ 0.2
7,DYRM,≤ 0.2
8,TSFW,≤ 0.2
9,MDHG,≤ 0.2
10,MANV,≤ 0.2
11,SEGS,≤ 0.2
12,FRLP,≤ 0.2
13,TSMM,≤ 0.2
14,VECG,≤ 0.2
15,RPCK,≤ 0.2
16,HHAW,≤ 0.2
17,AIVV,≤ 0.2
18,IAQS,≤ 0.2
19,RTDP,≤ 0.2
20,QTMR,0.656
21,QFEV,≤ 0.2
22,EILS,≤ 0.2
23,AFNR,≤ 0.2
24,MLTD,≤ 0.2
25,RKGC,0.218

row,Variant,one-hybrid fitness for binding NBS DNA
1,NIAR,≤ 0.2
2,HYPC,≤ 0.2
3,KLAN,≤ 0.2
4,SMGH,≤ 0.2
5,AVAP,≤ 0.2
6,AWGV,≤ 0.2
7,DQMR,≤ 0.2
8,PYVF,≤ 0.2
9,PTFF,≤ 0.2
10,KDVA,≤ 0.2
11,MQDR,≤ 0.2
12,HSKM,≤ 0.2
13,GDIS,≤ 0.2
14,EYAG,≤ 0.2
15,RWYR,≤ 0.2
16,PPTF,≤ 0.2
17,RVGD,≤ 0.2
18,PCRE,≤ 0.2
19,SKGR,≤ 0.2
20,YSRA,≤ 0.2
21,ICAY,≤ 0.2
22,QRSL,0.229
23,HQPT,≤ 0.2
24,KLKK,≤ 0.2
25,SVWS,≤ 0.2

row,Variant,one-hybrid fitness for binding NBS DNA
1,SRHH,≤ 0.2
2,NSLL,≤ 0.2
3,KKTG,≤ 0.2
4,HVTF,≤ 0.2
5,PHLE,≤ 0.2
6,EDEN,≤ 0.2
7,ARVI,≤ 0.2
8,DRGF,≤ 0.2
9,TQWG,≤ 0.2
10,SRNW,≤ 0.2
11,IDQT,≤ 0.2
12,RQFN,≤ 0.2
13,RPPV,≤ 0.2
14,PSKN,≤ 0.2
15,QFST,≤ 0.2
16,RMYK,≤ 0.2
17,DCTT,≤ 0.2
18,LMHI,≤ 0.2
19,SFCG,≤ 0.2
20,PGLH,≤ 0.2
21,ATIY,≤ 0.2
22,IKEC,≤ 0.2
23,GASA,≤ 0.2
24,AASL,≤ 0.2
25,HTCI,≤ 0.2

row,Variant,one-hybrid fitness for binding NBS DNA
1,RKLC,≤ 0.2
2,TDLV,≤ 0.2
3,RCQL,≤ 0.2
4,MYNS,≤ 0.2
5,GYAY,≤ 0.2
6,LKVR,≤ 0.2
7,SPKQ,≤ 0.2
8,VHRY,≤ 0.2
9,NLQD,≤ 0.2
10,TCTA,≤ 0.2
11,NAVS,≤ 0.2
12,RLYI,≤ 0.2
13,CFMS,≤ 0.2
14,RLTY,≤ 0.2
15,YIRW,≤ 0.2
16,EDST,≤ 0.2
17,YPGR,≤ 0.2
18,ETHH,≤ 0.2
19,PRVW,≤ 0.2
20,EILP,≤ 0.2
21,RFIT,≤ 0.2
22,RDAP,≤ 0.2
23,PMPY,≤ 0.2
24,ESLK,≤ 0.2
25,QHVR,0.379

row,Variant,one-hybrid fitness for binding NBS DNA
1,RDQQ,≤ 0.2
2,VTKV,≤ 0.2
3,TVTK,≤ 0.2
4,QFPG,≤ 0.2
5,HSSI,≤ 0.2
6,QRLG,0.298
7,VGTT,≤ 0.2
8,CGAI,≤ 0.2
9,WLQG,≤ 0.2
10,WQLK,≤ 0.2
11,FRRV,≤ 0.2
12,KPHQ,≤ 0.2
13,TSHP,≤ 0.2
14,EPGR,≤ 0.2
15,CPRY,≤ 0.2
16,IMVT,≤ 0.2
17,MRVV,≤ 0.2
18,VRYV,≤ 0.2
19,NRAA,≤ 0.2
20,ESKF,≤ 0.2
21,YQTR,≤ 0.2
22,RWSS,≤ 0.2
23,RESK,≤ 0.2
24,CEIK,≤ 0.2
25,NSTG,≤ 0.2

row,Variant,one-hybrid fitness for binding NBS DNA
1,AQPA,≤ 0.2
2,EHTS,≤ 0.2
3,VRKW,≤ 0.2
4,GFNT,≤ 0.2
5,WGNR,≤ 0.2
6,TLRH,≤ 0.2
7,HTQF,≤ 0.2
8,FCNG,≤ 0.2
9,PAAE,≤ 0.2
10,ILTP,≤ 0.2
11,WLRG,≤ 0.2
12,GDPS,≤ 0.2
13,VRGW,≤ 0.2
14,YMPN,≤ 0.2
15,IPVR,≤ 0.2
16,CWLY,≤ 0.2
17,FTTI,≤ 0.2
18,QMYS,0.405
19,WSSF,≤ 0.2
20,PPTP,≤ 0.2
21,MIDS,≤ 0.2
22,LKPH,≤ 0.2
23,FAKR,0.245
24,AEEG,≤ 0.2
25,CADR,≤ 0.2

row,Variant,one-hybrid fitness for binding NBS DNA
1,PSDW,≤ 0.2
2,THSW,≤ 0.2
3,IVKE,≤ 0.2
4,SLNK,≤ 0.2
5,HSHI,≤ 0.2
6,DVLN,≤ 0.2
7,SQPA,≤ 0.2
8,PPKA,≤ 0.2
9,AHKR,0.201
10,KWVS,≤ 0.2
11,PVEL,≤ 0.2
12,VRSF,≤ 0.2
13,WIWS,≤ 0.2
14,SAGT,≤ 0.2
15,AVCG,≤ 0.2
16,CEPT,≤ 0.2
17,THLW,≤ 0.2
18,GSLG,≤ 0.2
19,GESS,≤ 0.2
20,QHYG,≤ 0.2
21,LGHW,≤ 0.2
22,LFDT,≤ 0.2
23,MMRE,≤ 0.2
24,RYKD,≤ 0.2
25,TAGF,≤ 0.2

row,Variant,one-hybrid fitness for binding NBS DNA
1,CQDG,≤ 0.2
2,HNVR,≤ 0.2
3,RRLL,≤ 0.2
4,GWLY,≤ 0.2
5,RYGS,0.426
6,GPSD,≤ 0.2
7,CIVR,≤ 0.2
8,FWKT,≤ 0.2
9,PDWG,≤ 0.2
10,RMIT,0.253
11,RARY,0.265
12,RAIS,≤ 0.2
13,TSEM,≤ 0.2
14,FLLC,≤ 0.2
15,LLYL,≤ 0.2
16,GKMC,≤ 0.2
17,LCSC,≤ 0.2
18,DAKS,≤ 0.2
19,HRYH,≤ 0.2
20,ARAY,≤ 0.2
